Data reported in ChEMBL document CHEMBL4888484, “Replenishing the malaria drug discovery pipeline: Screening and hit evaluation of the MMV Hit Generation Library 1 (HGL1) against asexual blood stage Plasmodium falciparum ,using a nano luciferase reporter read-out” (2022).
Among all 150,000 compounds or so, about 540 (0.36%) showed an effect of 50% or more. Some of the results follow.

Each compound was assayed on Plasmodium falciparum (assay: Primary screen in NF54 nanoGlo assay, in single point, at 2uM, 72h; a lower Z score goes with more inhibition). Conditions: timepoint 72 hour.
Format: functional, Erythrocyte

| Structure (SMILES) | % Inhibition [%] | Z score |
| --- | --- | --- |
| CCOC(=O)/C(N)=N/NC(=O)Cc1ccc(F)cc1 | -3 | 0.37 |
| COc1ccc(Cn2c(C)c(C3=CCN(S(=O)(=O)c4c(C)noc4C)CC3)c3ccccc32)cc1 | -4 | 0.58 |
| O=C(CN1CCCC1)Nc1nc(-c2ccccc2)cc(-c2ccccc2)n1 | -1 | 0.2 |
| CCc1nsc(NC2CCCC2(C)CO)n1 (stereo not given) | 0 | 0.06 |
| C[C@@H](c1ccc2c(c1)OCCCO2)N(C(=O)C1CCC1)C1CC1 | 1 | -0.27 |
| CC1(C)CCc2ccccc2[C@@H](Nc2nnc(C(F)F)o2)C1 | 0 | 0.04 |
| O=C(NCc1ccccn1)[C@H]1CCCN(C2CCN(CCC3CCCCC3)CC2)C1 | 6 | -1.12 |
| Cc1ccc(C(C)(C)NC(=O)C2CC3C=CC2C3)cn1 (stereo not given) | 3 | -0.56 |
| Cn1cnnc1[C@H]1CCN(c2ccnc(Cc3ccccc3)n2)C1 | 0 | 0.02 |
| CCOC1CC(O)(CNC(=O)Cc2ccc(Cl)cc2Cl)C1 (stereo not given) | -36 | 4.2 |
| COC1(c2ccccc2)CN(Cc2nnn(C(C)(C)C)n2)C1 | 1 | -0.15 |
| Cn1cc([C@@H]2C[C@H]2C(=O)Nc2ccccc2NCC(F)(F)F)cn1 | -3 | 0.55 |
| CCOC(=O)CC[C@H](NC(=O)c1ccc(NC)cc1)C(=O)OCC | 29 | -3.7 |
| COc1ccc2c(c1)CCc1cnc(-n3ncc(C(=O)O)c3C)nc1-2 | -5 | 0.9 |
| Cc1ccc([C@H]2Nc3ccccc3C(=O)N2c2ccc3c(c2)OCO3)o1 | -11 | 1.13 |
| CC(=O)c1cccc(NC(=O)N(C)C[C@H](O)CN2CCN(C)CC2)c1 | 15 | -2.06 |
| Cc1nn(C(F)F)c(C)c1S(=O)(=O)N1CCC(Cc2ccccc2)CC1 | 11 | -1.37 |
| Cc1ccc2nc(C[C@H]3CN(C(C)C)CC[C@H]3CC(=O)O)[nH]c2c1 | -6 | 0.74 |
| Cc1noc(C)c1C(=O)Nc1ccnn1Cc1ccc(Cl)c(F)c1 | -4 | 0.74 |
| Cn1cc(Cc2nc(C3CCCC4CC43)no2)cn1 (stereo not given) | -5 | 0.92 |
| CC(C)Cn1nccc1C(=O)N1CC[C@@H]2CC[C@@]21c1cccnc1 | 9 | -1.09 |
| O=C(CCc1ccco1)Nc1ccc(NC(=O)c2ccco2)cc1 | -7 | 1.12 |

| Structure (SMILES) | % Inhibition [%] | Z score |
| --- | --- | --- |
| CCCc1noc(CCC(=O)N[C@@H](C)c2ccc(F)cc2)n1 | -6 | 0.83 |
| CC1OC(C)C(C(=O)N2CC3CC2(C(N)=O)C3)C1C (stereo not given) | -12 | 1.75 |
| CN(Cc1nnc(C2CC2)o1)OCc1ccccc1 | -5 | 0.47 |
| COc1ccc(CNC(=O)N2CC[S+]([O-])CC2)cc1OC | -8 | 1.35 |
| Cc1nscc1C(=O)NC[C@H](C)Nc1ccccc1 | -9 | 1.42 |
| COc1ccc(CCNC(=O)C2CCN(c3ccc(-c4ccccc4)nn3)CC2)cc1OC | -13 | 1.91 |
| CCc1nnsc1C(=O)Oc1ccc(N2CCCC2=O)cc1 | -1 | 0.25 |
| CNC(C)(C)c1cn(Cc2coc(C(C)(C)C)n2)nn1 | 1 | -0.13 |
| CCS(=O)(=O)N(CCN1CCCCC1)C1CN(C(=O)c2ccc(Cn3ccnc3)o2)C1 | -13 | 1.77 |
| CCN1C(=O)COc2ccc(NC(=O)c3ccc(OCc4nonc4C)cc3)cc21 | 1 | -0.08 |
| CCn1c(C)cc(C(=O)N2CCC[C@H]2c2ccncc2)c1C | -7 | 0.97 |
| COc1c(CNc2ccc(C(=O)N3CCCCC3)nc2)c(C)nn1C | -9 | 0.96 |
| COc1cc(-c2nn(CN(C)CC(=O)Nc3ccc(Cl)cc3)c(=S)o2)cc(OC)c1OC | -4 | 0.58 |
| Cn1cc(C(=O)Cn2nnc3c(cnn3-c3ccccc3)c2=O)cn1 | 1 | -0.13 |
| CCOC(=O)C(C)(c1c[nH]c2ccccc12)c1c[nH]c2ccccc12 | 0 | -0.04 |
| CC(C)NC(=O)CN1CCOc2ccc(Br)cc2C1 | -4 | 0.68 |
| O=C1CC(c2ccccn2)=NN1C12CC(C1)C2 | -12 | 1.18 |
| Cc1ccc(F)c(CC(=O)N2CCCS(=O)(=O)C[C@H]2c2cnn(C)c2)c1 | -5 | 0.67 |
| O=C(C[C@@]1(O)C(=O)N(Cc2ccc3c(c2)OCO3)c2ccccc21)c1ccccc1O | 4 | -0.66 |
| COC(=O)c1cc(N[C@H]2CC(=O)N(c3ccccc3)C2)ncn1 | -3 | 0.31 |
| Cc1cccc(C)c1NC(=O)[C@H]1CCCN(c2nc3c(s2)c(C)nn3-c2ccccc2)C1 | 8 | -1.04 |
| C[C@@H](c1ccon1)N(C)C(=O)c1ccc(OC2CCN(S(=O)(=O)N(C)C)CC2)cc1 | -4 | 0.67 |

| Structure (SMILES) | % Inhibition [%] | Z score |
| --- | --- | --- |
| CCc1nc2ccccc2c(NC(=O)CN2CCCC2)c1C | -8 | 1.13 |
| Cc1cc(C(=O)Nc2nnnn2C2CC2)ccn1 | -5 | 0.57 |
| COC[C@H]1CCCN(C(=O)c2coc(COc3ccccc3)n2)C1 | -5 | 0.95 |
| CC(C)N1CCC(C(=O)N2CCC3(CC2)c2ccccc2C[C@@H]3O)CC1 | -8 | 1.03 |
| COc1cc(-c2nc3ccc(C(=O)NCc4ccc5c(c4)OCO5)cc3nc2-c2cc(OC)c(OC)c(OC)c2)cc(OC)c1OC | 12 | -1.54 |
| CCOc1ccc(CN2CCC3(CCNC(=O)CC3)CC2)cn1 | 2 | -0.33 |
| CCOC1CC(CO)(NC(=O)CN(C)C)C1(C)C (stereo not given) | 9 | -0.92 |
| O=S(=O)(N1CCCCCC1)N1CCN2CCCC[C@H]2C1 | -12 | 1.67 |
| COc1ccc(NC(=O)c2ccc(N[C@@H](C)C(=O)N3CCCCC3)cc2)cc1 | -14 | 1.58 |
| Cc1nnc(CN(C)Cc2cnc(NCc3ccccc3)nc2)o1 | 2 | -0.36 |
| CC(C)(C)c1cc(NCc2ccc(F)c(F)c2)n(C(C)(C)C)n1 | -1 | 0.2 |
| CC1(C)CC[C@@H]1NC(=O)c1ccc(C(F)F)o1 | -4 | 0.85 |
| COCCN(C(=O)c1coc(CN2CCN(c3ccccc3F)CC2)n1)C(C)C | 1 | -0.1 |
| c1ccc(CN2CC[C@H](N3CCOCC3)C2)cc1 | 3 | -0.34 |
| C#CCCC1(CCC(=O)N2CCN(c3cnccc3C)CC2)N=N1 | -8 | 0.97 |
| c1ccc(-c2nnc(N3C[C@@H]4NCCO[C@H]4C3)s2)cc1 | -14 | 1.54 |
| Cc1nc(C)n(C[C@H]2CCCCN2c2nc3ccccc3o2)n1 | -5 | 0.67 |
| CC[C@@H](CO)NS(=O)(=O)c1cc(C)ccc1OC | -1 | 0.11 |
| CCCN(C)C(=O)[C@H]1CCCN(c2cnc3nccnc3c2)C1 | -4 | 0.67 |
| CCOC(=O)C1CCN(c2nnnn2[C@H]2CC(=O)N(CC)C2)CC1 | -4 | 0.48 |
| C[C@H]1CCN(C(=O)c2ccnnc2)CC12CCC2 | -28 | 2.99 |
| Cc1cccc(C(=O)N2c3ccccc3NC(=O)[C@@H]2CC(=O)Nc2cccc(Cl)c2)c1 | -4 | 0.59 |

| Structure (SMILES) | % Inhibition [%] | Z score |
| --- | --- | --- |
| CCO[C@H]1C[C@@H](O)C12CCN(C(=O)c1cc(C3CC3)no1)CC2 | 3 | -0.58 |
| Cc1c(NC(=O)c2cc(NC(=O)C(C)C)c(F)cc2F)cnn1-c1ccccc1 | -2 | 0.2 |
| O=C(CN1c2cc(F)ccc2CS1(=O)=O)NCC1CCC1 | -12 | 1.48 |
| COc1cc(C)c(CN2CCNC(=O)[C@@H]2Cc2ccccc2)cc1C | -10 | 1.65 |
| COc1ccc(-c2cc(N(C)C[C@H]3CCCS(=O)(=O)C3)n[nH]2)cc1 | -10 | 0.96 |
| O=C(c1ccc(-c2ccccc2)o1)N1CCNCC1 | -10 | 1.34 |
| O=S(=O)(C[C@H]1CCCC1(F)F)NCc1ccc2c(n1)CCCC2 | 1 | -0.2 |
| O=C(N[C@H](c1ccccc1)C1CCC1)N1CCOC2(CCC2)C1 | 38 | -4.92 |
| COc1cccc(Nc2nc(C)c(C(=O)Nc3ccc(Br)cc3F)s2)c1 | -6 | 0.89 |
| Cc1cc(CNc2cnccn2)cc(N2CCCC2)n1 | 15 | -2.01 |
| CCn1nccc1C(=O)N1CCC(CCn2c(C)cnc2COC)CC1 | -4 | 0.45 |
| CCn1c(CCC(=O)Nc2ccc3c(c2)CCC3)nc2cc(S(N)(=O)=O)ccc21 | 1 | -0.09 |
| O=C(COc1ccc(Cl)cc1Br)Nc1nnc(C2CC2)s1 | -3 | 0.56 |
| CC(C)(C[C@H]1CCCN(C(=O)C2(C)CCCC2)C1)C(N)=O | -4 | 0.57 |
| N#CC1(NC(=O)c2cc3c(cc2O)CCCC3)CCCC1 | 0 | -0.05 |
| c1ccc(CCn2nnc3ccccc32)cc1 | -3 | 0.38 |
| CC1CCCN(C(=O)c2cc3c([nH]c2=O)CCCC3O)CC1 (stereo not given) | -9 | 1.25 |
| O=C(Cn1cccnc1=O)Nc1nc2cc(F)c(F)cc2s1 | -22 | 1.98 |
| COc1ccc(-c2cc(C(F)(F)F)nc(-n3nc(-c4cccc(C)c4)c(C)c3-c3cccc(C)c3)n2)cc1 | -7 | 1.42 |
